Test results reported in the supplement of paper PMC8512760.
Some of the results follow. Most values come without repeats; read them as rough.

Key:
Test in all cases: cell viability relative to vehicle (% of vehicle); basal-like triple-negative breast cancer lines; higher = less cytotoxic
Settings in all cases: 10 µM; 72 h
HCC-1143 = test system: HCC-1143
HCC-1187 = test system: HCC-1187
MDA-468 = test system: MDA-468
SUM-149 = test system: SUM-149
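Also: stably firefly luciferase-GFP labeled cells in 96-well plates, viability read as luciferase photon flux after d-luciferin addition, treated wells normalized to vehicle wells, single-dose high-throughput screen.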

Q: How did the cell viability (HCC-1143) turn out when `CCC1(c2ccccc2)C(=O)NCNC1=O` [Primidone] was run?
A: Its cell viability is 82.3.

Q: And the cell viability (HCC-1187)?
A: Its cell viability is 90.7.

Q: What about the cell viability (MDA-468) of the same compound?
A: Its cell viability is 99.6.

Q: And the cell viability (SUM-149)?
A: The cell viability was 95.9.

Q: Which results are given for `Nc1nc(=O)c2nc(CNc3ccc(C(=O)NC(CCC(=O)O)C(=O)O)cc3)cnc2[nH]1` (stereo not drawn) [Folic acid]?
A: cell viability (HCC-1143): 101; cell viability (HCC-1187): 93.3; cell viability (MDA-468): 120; cell viability (SUM-149): 103

Q: With `FC(F)(F)c1ccc(CNc2ccc(Cc3c[nH]c4ncc(Cl)cc34)cn2)cn1` [Pexidartinib (PLX3397)] as the compound, how does the cell viability (HCC-1143) read?
A: Its cell viability is 83.8.

Q: And the cell viability (HCC-1187)?
A: The cell viability was 88.9.

Q: What about the cell viability (MDA-468) of the same compound?
A: Its cell viability is 103.

Q: What about the cell viability (SUM-149) of the same compound?
A: The cell viability was 102.

Q: `CC[C@H](C)[C@H]1O[C@]2(CC[C@@H]1C)C[C@@H]1C[C@@H](C/C=C(\C)[C@@H](O[C@H]3C[C@H](OC)[C@@H](O[C@H]4C[C@H](OC)[C@@H](O)[C@H](C)O4)[C@H](C)O3)[C@@H](C)/C=C/C=C3\CO[C@@H]4[C@H](O)C(C)=C[C@@H](C(=O)O1)[C@]34O)O2` [Ivermectin] was tested. Which cell viability (HCC-1143) did it give?
A: The cell viability was 36.3.

Q: And the cell viability (HCC-1187)?
A: Its cell viability is 26.

Q: What about the cell viability (MDA-468) of the same compound?
A: Its cell viability is 21.

Q: What about the cell viability (SUM-149) of the same compound?
A: Its cell viability is 29.9.

Q: Which cell viability (HCC-1143) does the source give for `C1=C\COCc2cc(ccc2OCCN2CCCC2)Nc2nccc(n2)-c2cccc(c2)COC/1` [Pacritinib] here?
A: The cell viability was 49.6.

Q: And the cell viability (HCC-1187)?
A: Its cell viability is 45.1.

Q: What about the cell viability (MDA-468) of the same compound?
A: The cell viability was 40.3.

Q: And the cell viability (SUM-149)?
A: Its cell viability is 71.5.

Q: Which cell viability (HCC-1143) does the source give for `CC(=O)N[C@H](Cc1ccc2ccccc2c1)C(=O)N[C@H](Cc1ccc(Cl)cc1)C(=O)N[C@H](Cc1cccnc1)C(=O)N[C@@H](CO)C(=O)N[C@@H](Cc1ccc(O)cc1)C(=O)N[C@H](CCCNC(N)=O)C(=O)N[C@@H](CC(C)C)C(=O)N[C@@H](CCCNC(=N)N)C(=O)N1CCC[C@H]1C(=O)N[C@H](C)C(N)=O` [Cetrorelix] here?
A: Its cell viability is 77.2.

Q: What about the cell viability (HCC-1187) of the same compound?
A: Its cell viability is 85.4.

Q: And the cell viability (MDA-468)?
A: Its cell viability is 119.

Q: What about the cell viability (SUM-149) of the same compound?
A: Its cell viability is 117.

Q: With `Nc1nc2ccc(OC(F)(F)F)cc2s1` [Riluzole] as the compound, how does the cell viability (HCC-1143) read?
A: The cell viability was 133.

Q: What about the cell viability (HCC-1187) of the same compound?
A: The cell viability was 185.

Q: And the cell viability (SUM-149)?
A: The cell viability was 184.

Q: How did the cell viability (HCC-1143) turn out when `CC(O)C1C(=O)N2C(C(=O)O)=C(SC3CNC(C(=O)N(C)C)C3)C(C)C12.O.O.O` (stereo not drawn) [Meropenem trihydrate] was run?
A: The cell viability was 78.7.

Q: What about the cell viability (HCC-1187) of the same compound?
A: Its cell viability is 77.

Q: What about the cell viability (MDA-468) of the same compound?
A: Its cell viability is 110.

Q: What about the cell viability (SUM-149) of the same compound?
A: The cell viability was 84.1.

Q: What does the source list for `CS(=O)(=O)O.Cc1ccc(NC(=O)c2ccc(CN3CCN(C)CC3)cc2)cc1Nc1nccc(-c2cccnc2)n1` [Imatinib Mesylate (STI571)]?
A: cell viability (HCC-1143): 99.4; cell viability (MDA-468): 99.6; cell viability (SUM-149): 108

Q: For `Cl.Nc1ccc(N=Nc2ccccc2)c(N)n1` [Phenazopyridine HCl], which cell viability (HCC-1187) is on record?
A: The cell viability was 96.5.

Q: With `Cc1c(OCC(F)(F)F)ccnc1CS(=O)c1nc2ccccc2[nH]1` (stereo not drawn) [Lansoprazole] as the compound, how does the cell viability (HCC-1187) read?
A: Its cell viability is 180.

Q: What about the cell viability (MDA-468) of the same compound?
A: Its cell viability is 169.

Q: And the cell viability (SUM-149)?
A: Its cell viability is 157.

Q: With `CC(C)c1nc(CN(C)C(=O)NC(C(=O)NC(Cc2ccccc2)CC(O)C(Cc2ccccc2)NC(=O)OCc2cncs2)C(C)C)cs1` (stereo not drawn) [Ritonavir] as the compound, how does the cell viability (HCC-1143) read?
A: The cell viability was 84.8.

Q: What about the cell viability (HCC-1187) of the same compound?
A: Its cell viability is 100.

Q: What about the cell viability (MDA-468) of the same compound?
A: Its cell viability is 82.4.

Q: What about the cell viability (SUM-149) of the same compound?
A: Its cell viability is 106.

Q: How did the cell viability (HCC-1143) turn out when `CCOC(=O)C1=CC(OC(CC)CC)C(NC(C)=O)C(N)C1.O=P(O)(O)O` (stereo not drawn) [Oseltamivir phosphate] was run?
A: Its cell viability is 72.1.

Q: And the cell viability (HCC-1187)?
A: The cell viability was 79.

Q: And the cell viability (MDA-468)?
A: Its cell viability is 94.4.

Q: And the cell viability (SUM-149)?
A: Its cell viability is 94.5.

Q: `Cc1nccn1CC1CCc2c(c3ccccc3n2C)C1=O.Cl.O.O` (stereo not drawn) [Ondansetron hydrochloride dihydrate] was tested. Which cell viability (HCC-1143) did it give?
A: The cell viability was 83.1.

Q: What about the cell viability (HCC-1187) of the same compound?
A: Its cell viability is 74.6.

Q: And the cell viability (MDA-468)?
A: The cell viability was 119.

Q: What about the cell viability (SUM-149) of the same compound?
A: Its cell viability is 129.

Q: What does the source list for `O=C(O)c1cc(O)c(O)c(O)c1` [Gallic acid]?
A: cell viability (HCC-1143): 70.6; cell viability (HCC-1187): 81.7; cell viability (MDA-468): 100; cell viability (SUM-149): 84.9

Q: For `CCn1cc(C(=O)O)c(=O)c2cnc(N3CCCC3)nc21` [Piromidic Acid], which cell viability (HCC-1143) is on record?
A: The cell viability was 70.4.

Q: What about the cell viability (HCC-1187) of the same compound?
A: The cell viability was 81.1.

Q: And the cell viability (MDA-468)?
A: Its cell viability is 99.3.

Q: What about the cell viability (SUM-149) of the same compound?
A: The cell viability was 95.3.

Q: Which cell viability (HCC-1143) does the source give for `Cc1ccc(NC(=O)c2ccc(CN3CCN(C)CC3)cc2)cc1Nc1nccc(-c2cccnc2)n1` [Imatinib (STI571)] here?
A: Its cell viability is 83.3.

Q: What about the cell viability (MDA-468) of the same compound?
A: The cell viability was 127.

Q: What about the cell viability (SUM-149) of the same compound?
A: The cell viability was 104.

Q: `Cc1ccc(=O)n(-c2ccccc2)c1` [Pirfenidone] was tested. Which cell viability (HCC-1143) did it give?
A: Its cell viability is 67.8.

Q: What about the cell viability (HCC-1187) of the same compound?
A: Its cell viability is 90.1.

Q: What about the cell viability (MDA-468) of the same compound?
A: The cell viability was 112.

Q: What about the cell viability (SUM-149) of the same compound?
A: Its cell viability is 102.

Q: `CCC(NC(=O)C(C)NC)C(=O)N1CC(O)CC1Cc1c(-c2[nH]c3cc(F)ccc3c2CC2CC(O)CN2C(=O)C(CC)NC(=O)C(C)NC)[nH]c2cc(F)ccc12` (stereo not drawn) was tested. Which cell viability (HCC-1143) did it give?
A: The cell viability was 83.3.

Q: What about the cell viability (HCC-1187) of the same compound?
A: The cell viability was 41.1.

Q: What about the cell viability (MDA-468) of the same compound?
A: Its cell viability is 96.4.

Q: What about the cell viability (SUM-149) of the same compound?
A: Its cell viability is 39.1.

Q: Which results are given for `Cn1c(=O)cc(N2CCCC(N)C2)n(Cc2ccccc2C#N)c1=O` (stereo not drawn) [Alogliptin (SYR-322)]?
A: cell viability (HCC-1143): 99.4; cell viability (HCC-1187): 102; cell viability (MDA-468): 102; cell viability (SUM-149): 105
